According to PubChem BioAssay AID1159614 (National Center for Advancing Translational Sciences (NCATS), 2016):
In all, about 45,000 compounds went through this assay and about 65 (0.1%) were called active. Calls follow the shape of the dose curve; as a rule, active = well fitted activation curve with a large enough effect; inconclusive = small, poorly fitted or top-dose-only effect; inactive = no such curve, though single readings can be large or run the other way. The list shows a part of the results.

Each compound was assayed against Galactocerebrosidase (Homo sapiens) (UniProt P54803) (assay: A Novel Cell-Based Assay to Identify Small Molecules for B -Galactocerebrosidase). Details: 145M-Twi-hGALC-G270D cells (Twitcher mouse brain line with human GALC G270D), HMU-beta-Gal fluorescence, 48 h; series mostly up to 57.5 µM; activation: at the top concentration.
How it was run: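 Mutant human GALC (G270D), stably expressed in a Twitcher mouse brain cell line lacking endogenous GALC, is measured in live-treated cells via 6-hexadecanoylamino-4-methylumbelliferyl-β-galactoside hydrolysis (0.1 mM final, pH 5.2) with fluorescent detection.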
Also: 0% is about no effect; nearly all actives have a fitted effect of over 65% in size.

Sequence of UniProt P54803 (P54803 whole entry, looked up): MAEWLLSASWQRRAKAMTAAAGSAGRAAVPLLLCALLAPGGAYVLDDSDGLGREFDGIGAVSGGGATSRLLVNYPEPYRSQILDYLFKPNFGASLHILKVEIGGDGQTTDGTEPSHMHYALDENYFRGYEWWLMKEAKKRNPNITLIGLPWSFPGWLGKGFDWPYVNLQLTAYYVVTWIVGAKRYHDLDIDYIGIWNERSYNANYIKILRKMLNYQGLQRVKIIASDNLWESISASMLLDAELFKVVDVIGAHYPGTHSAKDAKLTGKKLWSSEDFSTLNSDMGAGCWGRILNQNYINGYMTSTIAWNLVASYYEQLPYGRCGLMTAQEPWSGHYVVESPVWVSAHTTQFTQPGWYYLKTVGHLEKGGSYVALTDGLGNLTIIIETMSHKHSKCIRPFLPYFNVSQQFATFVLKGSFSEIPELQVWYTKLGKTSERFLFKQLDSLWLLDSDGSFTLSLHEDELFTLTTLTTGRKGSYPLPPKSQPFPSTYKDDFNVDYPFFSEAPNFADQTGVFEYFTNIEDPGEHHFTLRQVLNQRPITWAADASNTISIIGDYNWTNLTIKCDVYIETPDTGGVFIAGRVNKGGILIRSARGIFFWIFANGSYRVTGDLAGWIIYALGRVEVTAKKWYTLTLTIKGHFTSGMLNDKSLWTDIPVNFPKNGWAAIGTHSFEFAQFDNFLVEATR

activation, inactive:
N#Cc1ccc(S(=O)(=O)N2CCC(Oc3cccc(C(F)(F)F)c3)CC2)cc1 -9.03%
COc1ccc(S(=O)(=O)NCCc2sc(-c3cccnc3)nc2C)cc1OC -21.8%
COc1cc(CN(C(=O)c2ccccc2Br)c2ccccn2)cc(OC)c1OC 2.49%
Cc1cc(C)cc(NC(=O)Cn2nc(N3CCN(c4ccccc4)CC3)ccc2=O)c1 -11.4%
CC(=O)c1c(C)n(S(=O)(=O)c2ccc(Cl)cc2)c2ccc(NS(=O)(=O)c3ccc(Cl)cc3)cc12 -23%
CCOc1cc2c(cc1OCC)C(CC(=O)OC)N(C(=O)Nc1cc(OC)ccc1OC)CC2 (stereo unspecified) -20.6%
CCOC(=O)c1ccc(N)cc1 -11.6%
CCN(CC)C(=O)c1sc2c(c1C)c(=O)n(CCc1ccccc1)c(=O)n2Cc1ccc(C)cc1 -9.66%
CCc1ccc(NC(=O)c2cccc(N3CCCS3(=O)=O)c2)cc1 1.01%
Cc1ccc(C)c(N2CCN(C(=O)CCS(=O)(=O)c3ccc4c(c3)oc(=O)n4C)CC2)c1 -7.55%
Cc1ccc(NC(=O)CN2C(=O)C(c3ccc(C)cc3)=NC23CCCCCC3)cc1 9.98%
COc1ccc2c(c1)c(=O)c(S(=O)(=O)c1ccc(Cl)cc1)cn2Cc1cc(C)ccc1C -0.714%
CCCCNC(=O)c1cc(-c2cccnc2)nc2ccc(S(=O)(=O)NCCCC)cc12 -7.26%
CCN1CCSc2ccc(C(=O)NCc3ccc(F)cc3)cc21 27.7%
COc1ccc(CNC(=O)Cn2ncc3c(=O)oc4ccccc4c32)c(OC)c1 -11.5%
Cc1ccc(CNC(=O)CCSCc2cnn(-c3ccccc3)c2-n2cccc2)cc1 -0.421%
COc1ccc(NCc2cccn2-c2nnc(N3CCOCC3)s2)cc1OC -9.26%
CCc1cccc(NC(=O)Cc2nc(-c3ccc(OC)cc3)no2)c1 -6.07%
COCCCNC(=O)c1nn(C)c2c1CS(=O)(=O)c1ccccc1-2 -10.5%
Cc1csc2nc(COC(=O)c3cccc(NC(=O)COc4ccccc4Cl)c3)cc(=O)n12 -6.42%
CCN(CC)CCOC(=O)C(c1ccccc1)c1ccccc1 -7.02%
OC(CCCN1CCCCC1)(c1ccccc1)c1ccccc1 -8.92%
COc1cc([N+](=O)[O-])ccc1NC(=O)c1nc2ccccc2n(C)c1=O -11.3%
Cc1ccc(S(=O)(=O)c2nc(-c3cccc(Br)c3)oc2N2CCCCCC2)cc1 -26%
O=C(CSc1nnc2[nH]c(=O)cc(-c3ccccc3)n12)Nc1ccc(OC(F)(F)F)cc1 -8.23%
COC(=O)CCCn1c(-c2ccc(C)cc2)c(C)n2c3c(=O)n(C)c(=O)n(C)c3nc12 -7.17%
COc1ccc(CNC(=O)CC2N=C3c4ccccc4N=C(SCC(=O)Nc4ccc(C(C)C)cc4)N3C2=O)cc1 (stereo unspecified) -6.51%
COc1ccc(-c2cn3c(n2)sc2cc(C(=O)NC(C)C45CC6CC(CC(C6)C4)C5)ccc23)cc1 (stereo unspecified) -11.7%
CCCSc1ncc(Cl)c(C(=O)Nc2sc(C(C)=O)c(C)c2C(=O)OCC)n1 -11.7%
O=C(Cc1ccc(Cl)cc1)NCC(c1cccs1)S(=O)(=O)c1ccccc1 (stereo unspecified) -6.92%
Cc1cc(=O)n(Cc2c(F)cccc2Cl)c2c1c(C)nn2-c1cccc(F)c1 -12%
Cc1ccc(S(=O)(=O)N(CC(=O)Nc2ccc(F)cc2F)Cc2ccc(F)cc2)cc1 -16.8%
CCN(CC)c1cc(C)c2cc(NC(=O)c3cc(OC)cc(OC)c3)ccc2n1 -11.5%
CCn1ccc2c(OCC(=O)Nc3ccc(C)c(Cl)c3)cccc2c1=O -7.4%
COc1cccc(N2CCN(C(=O)CCSCc3ccccc3F)CC2)c1 4.07%
CCOC(=O)C1CCN(S(=O)(=O)c2cc3c4c(c2)C(C)C(=O)N4CCC3)CC1 (stereo unspecified) -14.9%
Cc1cccc(C(=O)Nc2c(C(=O)N3CCN(c4ccc(F)cc4)CC3)oc3ccccc23)c1 -9.82%
CN(C)S(=O)(=O)c1ccc2c(c1)N(CC(=O)Nc1cccc(C(F)(F)F)c1)C(=O)CS2 -2.81%
Cc1c(CNC(C)CCc2ccccc2)c(C(=O)O)c(C)n1Cc1ccc(F)cc1 (stereo unspecified) -19.8%
CCOc1ccc(NC(=O)C(CC(C)C)N2Cc3ccccc3C2=O)cc1 (stereo unspecified) -1.46%
CCOC(=O)c1ccccc1NC(=O)NCc1c(-n2cccc2)sc2c1CCCC2 -16.1%
CC(C)(C)OC(=O)N1CCC(N2CCN(Cc3ccccc3)C(=O)C2=O)CC1 -7.77%
Cc1onc(-c2ccccc2Cl)c1C(=O)Oc1ccccc1F -18.3%
COc1cc(C(=O)NC(c2ccccc2Cl)c2cc(Cl)c3cccnc3c2O)cc(OC)c1OC (stereo unspecified) -11.3%
Cc1ccc(C)c(NC(=O)CSc2nnc3[nH]c(=O)cc(-c4ccccc4)n23)c1 -4.5%
CC(=O)Nc1ccc(NC(=O)c2cc(CN3CCCC3)on2)cc1 -16%
CCOc1ccc(NC(=O)Cn2c(=O)n(CC3CCC(C(=O)NCCc4ccccc4)CC3)c(=O)c3ccccc32)cc1 (stereo unspecified) -12.3%
COc1ccc(NC(=O)CSc2oc(-c3ccco3)nc2S(=O)(=O)c2ccc(C)cc2)c(OC)c1 -10.9%
COc1ccccc1C(=O)Nc1cccc(C(=O)OCc2cc(=O)n3c4c(sc3n2)CCCC4)c1 -11.5%
CCS(=O)(=O)N1CCc2cc(C(=O)Nc3cc([N+](=O)[O-])ccc3C)ccc21 3.45%
COc1cc(C2c3c(-c4cc(C)ccc4O)n[nH]c3C(=O)N2Cc2cccnc2)cc(OC)c1OC (stereo unspecified) -22.4%
CCOc1ccccc1NC(=O)c1ccc2c(c1)CCN2S(C)(=O)=O -10.4%
CCn1cc2nc(SCC(=O)Nc3cc(OC)ccc3OC)n(Cc3ccc(Cl)cc3)c(=O)c2n1 -9.95%
Cc1ccc(-n2c(SCC(=O)N3CCc4ccccc43)nc3c([nH]c4ccccc43)c2=O)cc1 -0.101%
O=C(NC1CCCCC1)c1ccc2c(c1)N(Cc1ccccc1F)C(=O)c1ccccc1S2 -2.7%
Cn1c(=O)c(=O)n(C)c2cc(S(=O)(=O)N3CCCC3C(=O)Nc3cccc(F)c3)ccc21 (stereo unspecified) -7.71%
O=C(CCn1c(=O)c2cccn2c2cccnc21)N1CCN(c2ccc(F)cc2)CC1 -11.1%
CCCC(=O)Nc1nnc(SCc2cc(=O)n3ccccc3n2)s1 -7.75%
COc1ccccc1CCNC(=O)Cn1ccc2cc(S(=O)(=O)N3CCCCC3)ccc21 -27%
CC(C)(C)CC(C)(C)c1ccc(O)c(Cc2ccc(Cl)cc2Cl)c1 -14.3%
COc1ccc(C(=O)Nc2ccc3nc(SCC(=O)N4CCCC4)sc3c2)cc1 -16.9%
COc1ccc(-c2noc(CN(C(=O)c3ccccc3Cl)C(C)C)n2)cc1 -7.45%
Cc1ccccc1Cn1c(-c2cccs2)nc2ccccc21 -11%
CCN(CCN(C)C)C(=O)Cn1ncc2c([nH]c3ccc(C)cc32)c1=O -14.7%
CN1CCN(c2c(F)cc3c(=O)c(C(=O)O)cn4c3c2OCN4C)CC1 -21.9% [at 23.8 µM]
Cc1ccc(CNC(=O)C2CCN(Cc3nc(-c4ccccc4C)oc3C)CC2)cc1 -12.1%
Cc1ccn2c(Nc3ccccc3C)c(-c3ccncc3)nc2c1 -2.57%
Cc1cccc(NC(=O)CSc2nnc(CNC(=O)c3cccc(C)c3)n2-c2ccccc2)c1 -14.1%
CCCCn1c(CN2CCN(c3ccc(OC)cc3)CC2)nc2c1c(=O)[nH]c(=O)n2C -8.59%
CCOc1ccc(CNC(=O)CCC(=O)N2Cc3ccccc3Oc3ncccc32)cc1 -7.8%
Cc1ccc(Cn2c(CN3CCC(C(=O)NCc4cccnc4)CC3)cc3ccccc32)cc1 -0.752%
COC(=O)c1cc(Cl)c(NC(C)=O)cc1OC -9.03%
Cc1ccc2nc(CSc3nnc(NC(=O)CC(C)C)s3)cc(=O)n2c1 -9.95%
CN1CC(=O)N(CC(=O)Nc2cccc(C#N)c2)c2ccccc2C1=O -7.77%
O=C(Nc1ccccc1C(F)(F)F)C1(S(=O)(=O)c2ccc(Cl)cc2)CC1 -4.45%
COc1ccc(OC)c(NC(=O)C2CCCN(S(=O)(=O)c3ccc4[nH]c(=O)ccc4c3)C2)c1 (stereo unspecified) -6.99%
NC(=O)CSc1nc2cc3c(cc2c(=O)n1CCCCCC(=O)NCc1ccc2c(c1)OCO2)OCO3 -7.08%
COc1ccc(OC)c(NC(=O)CSc2c3c(nc4cc(Cl)ccc24)CCCC3)c1 -4.89%
CC(=O)c1cccc(NC(=O)CCS(=O)(=O)c2ccc3c(c2)n(C)c(=O)c(=O)n3C)c1 -5.26%
CCCCCCNC(=O)CCc1c(C)nc2nc(-c3cc(OC)cc(OC)c3)nn2c1C 0.178%
Cc1ccc(C(=O)c2cn(Cc3cc(C)ccc3C)c3nc(C)ccc3c2=O)cc1 0.047%
CCOCCCNC(=O)C(NC(=O)C1CCC(C)CC1)C(C)C (stereo unspecified) -4.42%
CN(C1CCCCC1)S(=O)(=O)c1ccc2c(c1)c(=O)c(C(=O)N1CCN(c3ccc(F)cc3)CC1)cn2C -12.9%
COc1ccc(-c2cn3c(n2)sc2cc(C(=O)NCC(C)c4ccccc4)ccc23)cc1 (stereo unspecified) -8.47%
CCOC(=O)N1CCN(Cc2nc3cc(NC(=O)c4ccc(F)cc4)ccc3n2C(C)C)CC1 -28.7%
Cc1ccc(CCNC(=O)c2cnc3c(C)cccn3c2=O)cc1 1.1%
Cc1c(Cl)cccc1NC(=O)Nc1nnc(N(C)C2CCCCC2)s1 -11.8%
CC(=O)Nc1ccc(NC(=O)C(NC(=O)C2CCC(C)CC2)C(C)C)cc1 (stereo unspecified) -11.4%
CCS(=O)(=O)n1nc(-c2ccco2)nc1NCc1ccc(C(C)C)cc1 -18.3%
CC(C)c1cc(C(=O)NCc2ccc(F)cc2)no1 -9.22%
CCc1ccccc1NC(=O)c1nn(-c2ccc(C)cc2)c(=O)c2c1c1ccccc1n2C -13.9%
CCc1ccc(Cn2nnc3c(=O)[nH]c(C4CCCN(C(=O)c5cccc(Cl)c5)C4)nc32)cc1 (stereo unspecified) 1.72%
O=C(Nc1ccc(F)cc1)c1ccc(CN2CC(=O)N3CCCCC3C2=O)cc1 (stereo unspecified) -10.3%
COc1ccc(C)cc1NC(=O)C1CCC(CNS(=O)(=O)c2ccc3c(c2)CCCC(=O)N3)CC1 (stereo unspecified) 0.899%
Cc1ccc(-n2cnc3cc(C(=O)NC4CCCCCC4)ccc32)c(C)c1 -17.6%
CCCOc1cccc(C2c3c(oc4ccc(F)cc4c3=O)C(=O)N2CCCN2CCOCC2)c1 (stereo unspecified) 2.2%
